In the supplement of paper PMC12217912:
The list shows a part of the results. Sequences were assembled here from the parent chain. Inactive controls read about 0.05.

B1: TEV protease; numbered along this chain (parent)
chain: MGESLFKGPRDYNPISSSICHLTNESDGHTTSLYGIGFGPFIITNKHLFRRNNGTLVVQSLHGVFKVKDTTTLQQHLVDGRDMIIIRMPKDFPPFPQKLKFREPQREERICLVTTNFQTKSMSSMVSDTSCTFPSGDGIFWKHWIQTKDGQCGSPLVSTRDGFIVGIHSASNFTNTNNYFTSVPKNFMELLTNQEAQQWVSGWRLNADSVLWGGHKVFMVKPEEPFQPVKEATQL

Variants of: B1
Experiment: raw area under fraction-flipped curve 0-4 h after induction (AUC4h, not background-subtracted), DNA-recorder readout of cleavage of the substrate (dimensionless); higher = more cleavage of the substrate by the protease variant
Details: temperature: 34 °C; time window: 0-4 h after rhamnose induction
Method: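 In vivo DNA recorder in E. coli TOP10(DE3) ΔrhaA at 34 °C. Each TEVp single-site mutant (parent TEVp 0) is paired with a single-site variant of the 7-mer TEVs (canonical ENLYFQ|S). The substrate sits between flexible linkers in a Bxb1-sfGFP-TEVs-SsrA fusion, so cleavage stabilises Bxb1 and speeds flipping of a recombination array, read by NGS. The value is the raw area under the fraction-flipped curve over 0-4 h after rhamnose induction (AUC4h), with ≥20 reads per time point. It is not background-subtracted; inactive controls average about 0.047.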
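Also: Bxb1 expression induced with 0.2% (w/v) L-rhamnose at OD600 near 0.5, cultures sampled hourly, flipped fraction per protease–substrate barcode pair counted by paired-end Illumina sequencing.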

Variant	area with substrate ENLYFQA	area with substrate ENLYFQD	area with substrate ENLYFQG	area with substrate ENLYFQH	area with substrate ENLYFQI	area with substrate ENLYFQK	area with substrate ENLYFQL	area with substrate ENLYFQM	area with substrate ENLYFQN	area with substrate ENLYFQR	area with substrate ENLYFQS	area with substrate ENLYFQT	area with substrate ENLYFQC	area with substrate ENLYFQE	area with substrate ENLYFQP	area with substrate ENLYFQW	area with substrate ENLYFQF	area with substrate ENLYFQV	area with substrate ENLYFQY	area with substrate ENLYFQQ
C111I	0.0964	0.0362	0.109	0.0722	0.0434	0.054	0.0656	0.0567	0.0723	0.0628	0.1	0.0652								
D69R	0.0867		0.0754				0.0662	0.0559	0.0738	0.0559	0.0837	0.0546	0.108	0.0658	0.0483	0.0747				
D69C	0.0829	0.0608		0.0705			0.0622	0.0719	0.0787	0.0382	0.0907		0.0977	0.0727	0.0593	0.0218	0.0578	0.0563	0.0678	
Q59Y	0.124	0.0739	0.0652			0.0606	0.0518				0.105	0.0605	0.0911	0.0776		0.0534	0.0609			
E103W	0.0844	0.0585	0.0812	0.0751	0.0503	0.0624	0.06	0.0732	0.0621	0.0617	0.0785	0.0429	0.0837		0.0572	0.0612		0.0577	0.0592	0.024
K66V	0.111		0.0937		0.0607	0.0634	0.0571	0.0822		0.0626	0.115	0.0556	0.138		0.0538	0.0686			0.08	
R106W	0.0797	0.0808	0.102	0.0932	0.0629	0.066	0.0658	0.0784	0.0854	0.0661	0.1	0.0706	0.105		0.0538	0.0651	0.0796	0.0604	0.0828	0.0649
F49C	0.0735	0.0573	0.0682	0.0645	0.0636	0.0539	0.0544	0.0665	0.0458	0.0527	0.0676	0.0538	0.0744	0.0641	0.0486					
Q105G	0.0959		0.0668	0.059	0.0629	0.0696	0.0572	0.0758	0.0673	0.0623	0.0903	0.0622	0.0707		0.0579	0.0492		0.0479	0.0711	0.0862
Q105A	0.0993		0.0918		0.0538	0.0613	0.0596	0.0834	0.0751	0.0639	0.102	0.0653	0.134	0.0731		0.0789	0.0735	0.0656	0.0799	
F65T	0.0858	0.0716	0.101			0.0576	0.0616	0.106	0.0937	0.0647	0.104	0.0507	0.0744				0.0837		0.0864	
E108I	0.0582	0.0548	0.0675	0.0585	0.0501	0.0552	0.0586	0.0642	0.0502	0.0401	0.0632	0.0624	0.0577		0.0478	0.0652				0.0558
